The results in this text go back to a compilation of properties of binary mixtures (doi:10.1109/gcce.2014.7031273).

The data set is described as follows: xn = mol fraction of the nth substance listed. The settings on record: 293.15 K, 100 kPa.

The densities may have been worked out from excess volumes.

For the compound `CCO` + CC(=O)[O-].Cn1cc[n+](C)c1, the mass density (usually mass per unit of volume) (x2 = 0) is on record as 789.5 kg/m3.
Regarding `CC(=O)[O-].Cn1cc[n+](C)c1` + CCO, the mass density runs as follows: (x1 = 0.0291) 814.7 kg/m3; (x1 = 0.0405) 823.6 kg/m3; (x1 = 0.0513) 832.1 kg/m3; (x1 = 0.0733) 848.3 kg/m3; (x1 = 0.1157) 877.3 kg/m3; (x1 = 0.2104) 931.8 kg/m3. Besides, the mass density by setting is: (x1 = 0.2607) 956.1 kg/m3; (x1 = 0.4929) 1037.9 kg/m3; (x1 = 0.5903) 1062 kg/m3; (x1 = 0.7305) 1089.9 kg/m3.
